Laboratory results from PubChem BioAssay (NCATS).
Where “and” joins values, the source holds several entries; their conditions need not be identical. Equal entries are not always repeated. Inconclusive means that the source gave no clear call. Such entries were picked first, then a sample of the others. For part of these data: Potencies of inconclusive entries are doubtful fits and often do not repeat. Calls of active or inactive are those of the source. Calls follow the shape of the dose curve; as a rule, active = well fitted curve in the direction sought with a large enough effect; inconclusive = small, poorly fitted or top-dose-only effect, or another doubt; inactive = no such curve, though single readings can be large; an effect the other way counts as inactive or inconclusive.

Key:
[1] = qHTS assay for measurement of the activity of small molecule inhibitors on Zika virus induced Caspase-3 activity in human iPSC derived neural progenitor cells (hNPCs) (AID 1224857); also: nearly all actives have a fitted effect of over 65% in size; also: potency is read from the fitted curve at half-maximal effect
In short: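 In medium with heparin 2 ug/ml and cyclopamine 2 uM, hNPCs (350 cells/well) received compound for one hour and then Zika virus at 2 FFU/cell; caspase activity was measured by Caspase-Glo 3/7 luminescence 6 h post-infection.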

[2] = qHTS Screen of the MIPE 4.0 Collection Against Ewings Sarcoma (RDES) (AID 1259252); also: potency is read from the fitted curve at half-maximal effect; nearly all actives have a fitted effect of over 35% in size
In short: (§1)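 After a 4 h attachment period in RPMI/5% FBS, cells were pin-dosed with test compounds; DMSO served as negative and 9.2 uM bortezomib (final) as positive control. Luminescent CellTiter-Glo signal at 48 h defined viability.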

[3] = qHTS assay for cell viability of HEK293 cells (AID 743288); settings: ATP luminescence (CellTiter-Glo), 18 h; max response: stronger effect = lower value; also: potency is read from the fitted curve at half-maximal effect; nearly all actives have a fitted effect of over 50% in size
In short: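 HEK293 parental, 2,000 cells/well; ≥5 h pre-incubation 37 C; pintool compound addition; 18 h, 37 C; CellTiter-Glo 30 min RT; luminescence read.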

[4] = qHTS assay to identify small molecule inhibitors of chordoma cells - UCH-1 (AID 1259355); also: nearly all actives have a fitted effect of over 55% in size; also: potency is read from the fitted curve at half-maximal effect
In short: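 Seed 800 cells per well; incubate overnight at 37 C, 5% CO2. Add test compounds (15 concentrations), then the auranofin–topoisomerase-agent combination. Incubate 48hr, add CellTiter-Glo, wait 30min, read luminescence.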

[5] = P-glycoprotein substrates identified in KB-8-5-11 adenocarcinoma cell line, qHTS therapeutic library screen (AID 1346987); also: potency is read from the fitted curve at half-maximal effect; nearly all actives have a fitted effect of over 65% in size
In short: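 Steps: plate 500 KB-8-5-11 cells/well in DMEM + 10% FCS (colchicine removed); pin compounds in dose-response; incubate 72 h, 37 degree C, 5% CO2; add CellTiter-Glo, 5 min; read luminescence.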

[6] = NS1 protein of Zika virus - qHTS assay to identify small molecule inhibitors in human HEK 293 cells (AID 1347053); also: potency is read from the fitted curve at half-maximal effect; nearly all actives have a fitted effect of over 55% in size
In short: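 Following 20 h seeding, HEK 293 cells took compound, then 1 h later ZIKV MR766 (MOI = 0.5). Incubation ran 24 h at 37 C before TR-FRET detection of NS1; a drop in signal indicates inhibition.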

[7] = qHTS Screen of the MIPE 4.0 Collection Against Ewings Sarcoma (TC32) (AID 1259256); settings: TC32 Ewing sarcoma viability, CellTiter-Glo, 48 h; series mostly up to 45.8 µM; also: nearly all actives have a fitted effect of over 45% in size
In short: as §1

[8] = qHTS Screen of the MIPE 4.0 Collection Against Ewings Sarcoma (TC71) (AID 1259253); also: potency is read from the fitted curve at half-maximal effect; nearly all actives have a fitted effect of over 40% in size
In short: as §1

[9] = qHTS assay to identify small molecule inhibitors of chordoma cells - UCH-2 (AID 1259356); also: potency is read from the fitted curve at half-maximal effect
[10] = qHTS Screen of the MIPE 4.0 Collection Against Ewings Sarcoma (EW8) (AID 1259255); also: potency is read from the fitted curve at half-maximal effect; nearly all actives have a fitted effect of over 35% in size
In short: as §1
Tags tell the direction and shape of the fitted curve.

COc1ccc(C(=O)N2CCCC2=O)cc1
Potency [1]: inconclusive: 5.9 µM [inhibitor, partial curve, poor fit]
Potency [2]: inconclusive: 33.2 µM [inhibitor, partial curve, poor fit]

CC(C)[N+](C)(CCC(C(N)=O)(c1ccccc1)c1ccccc1)C(C)C
Potency [1]: active: 31.6 µM

CN(C)C(=S)SSC(=S)N(C)C
Potency [3]: active: 44.7 µM and inconclusive: 50.1 µM [cytotoxic, partial curve, poor fit]
Potency [1]: inconclusive: 31.6 µM [inhibitor, partial curve, poor fit]
Potency [4]: inconclusive: 126 nM [cytotoxic, full curve, poor fit]
Potency [5]: inconclusive: 29.1 µM [inhibitor, single point]
Potency [6]: inconclusive: 1.12 µM [inhibitor, full curve, poor fit]

NCc1cccnc1
Potency [1]: inactive

CC(=O)OCC1=C(C(=O)[O-])N2C(=O)[C@@H](NC(=O)CCC[C@@H](N)C(=O)[O-])[C@H]2SC1.[Zn+2]
Potency [1]: inconclusive: 35.5 µM [inhibitor, single point]

Nc1ccc(N=Nc2ccccc2)cc1
Potency [1]: active: 28.2 µM

COc1cccc2c1C(=O)c1c(O)c3c(c(O)c1C2=O)C[C@@](O)(C(=O)CO)CC3OC1CC(N2CCOC(OC)C2)C(O)C(C)O1 (some centres undefined)
Potency [1]: inconclusive: 35.5 µM [inhibitor, single point]

C[N+]1(CCC(C(N)=O)(c2ccccc2)c2ccccc2)CCCCC1
Potency [1]: inactive

Oc1ccc2c3c1O[C@H]1c4[nH]c5c(c4C[C@@]4(O)[C@@H](C2)N(CC2CC2)CC[C@]314)C[C@@]1(O)[C@H]2Cc3ccc(O)c4c3[C@@]1(CCN2CC1CC1)[C@H]5O4
Potency [1]: inconclusive: 31.6 µM [inhibitor, single point]
Potency [2]: inconclusive: 33.2 µM [inhibitor, single point]
Potency [7]: inactive

C[N+](C)(C)CCOC(=O)C(O)(c1ccccc1)c1ccccc1
Potency [1]: inconclusive: 11.2 µM [inhibitor, partial curve, poor fit]

CC(C)N[C@@H]1CCn2c(=O)[nH]c3cccc(c32)[C@@H]1O
Potency [1]: active: 16.6 µM

CC(N)C(=O)OC(C)(C)Cc1ccc(Cl)cc1 (centres undefined)
Potency [1]: inconclusive: 7.08 µM [inhibitor, partial curve, poor fit]

CCN(CC)C(C)C(=O)c1ccccc1 (centres undefined)
Potency [1]: inactive
Potency [4]: inactive

C[C@]12CC[C@H]3[C@@H](CCC4=CC(=O)CC[C@@H]43)[C@@H]1CC[C@@H]2OC(=O)CCc1ccco1
Potency [1]: inactive

CCNC(=O)C[C@@H]1N=C(c2ccc(Cl)cc2)c2cc(OC)ccc2-n2c(C)nnc21
Potency [1]: inactive
Potency [8]: active: 2.96 µM
Potency [5]: inconclusive: 8.33 µM [inhibitor, partial curve] and inconclusive: 10.3 µM [inhibitor, partial curve]

O=C(Nc1ccc(Br)cc1)c1cc(Br)cc(Br)c1O
Potency [1]: inconclusive: 3.55 µM [inhibitor, full curve, poor fit]
Potency [9]: inactive
Potency [5]: active: 4.61 µM

CC[n+]1c(-c2ccccc2)c2cc(N)ccc2c2ccc(N)cc21
Potency [3]: inconclusive: 39.8 µM [cytotoxic, partial curve, poor fit]
Potency [1]: inconclusive: 3.55 µM [inhibitor, full curve, poor fit]
Potency [4]: active: 7.94 µM and inconclusive: 11.2 µM [cytotoxic, partial curve, poor fit]
Potency [9]: inconclusive: 7.3 µM [cytotoxic, partial curve]

COP(=S)(OC)SCN1C(=O)c2ccccc2C1=O
Potency [1]: inconclusive: 12.6 µM [inhibitor, single point]

Cc1cc([C@@H]2CCCN2C)on1
Potency [1]: inactive

O=C1C=CC[C@@H]2[C@H]3CCCN4CCC[C@@H](CN12)[C@@H]34
Potency [1]: active: 4.69 µM
Potency [2]: inconclusive: 18.7 µM [inhibitor, partial curve]
Potency [8]: inconclusive: 16.6 µM [inhibitor, partial curve]
Potency [10]: inconclusive: 16.6 µM [inhibitor, partial curve]

COc1nn(CSP(=S)(OC)OC)c(=O)s1
Potency [1]: inconclusive: 39.8 µM [inhibitor, partial curve, poor fit]
